PubChem BioAssay AID445 (National Center for Advancing Translational Sciences (NCATS), 2006)
In all, about 110,000 compounds went through this assay and about 40 (0.04%) were called active. The inconclusive results got no clear call from the source; some entries with a clear call stand among them for comparison. The call rests on the fitted dose curve; in most records, active means well fitted curve in the direction sought with a large enough effect in the signal ratio (not every such curve was filed as active); inconclusive means small, poorly fitted or top-dose-only effect, or a change in a side signal; inactive means flat fitted curve, though single readings scatter; the % refers to the signal ratio. Potencies beside an inconclusive call are fits to weak or partial responses and may not hold up.

Experiment: IkB Signaling;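 on IkBa stabilization activation: 0% = basal untreated cells and 100% = reference inhibitor full response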
Conditions: ABC-DLBCL IkBa-CBG/CBR dual luciferase ratio (green luciferase fused to IkBa over red control in OCI-Ly3 lymphoma cells), 4 h; IkBa stabilization activation: at 57.1 µM (top of the series), scaled: untreated 0%, proteasome inhibitor 100% unless noted
How it was run: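 In this assay, an IκBα–CBG68 fusion accumulates when IKK-driven degradation is blocked; native CBR normalizes for cell number. OCI-Ly3 cells were treated 4 h with compound and doxycycline, then green and red light read after Chroma-Glo addition.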
Potency means the concentration at half of the fitted maximal effect.

Compound	IkBa stabilization activation	Potency
O=C(CSc1nnc(-c2ccc(O)cc2)n1Cc1ccco1)N1CCc2ccccc2C1	inconclusive: 2.1% [signal inhibitor]	–
CCCCN(CCCC)CCNC(=O)c1cn(C)c2ccc(S(=O)(=O)N3CCOCC3)cc2c1=O	inactive	–
Cc1c(Cl)cccc1NS(=O)(=O)c1ccc2[nH]cc(C(=O)NC3CCCC3)c(=O)c2c1	inconclusive: -2.85% [signal inhibitor]	–
Cc1ccc(S(=O)(=O)c2nc(-c3cccs3)oc2N2CCCCC2)cc1	inconclusive: 0.628% [signal inhibitor]	–
Oc1ccccc1C1Nc2cccc3cccc(c23)N1	inconclusive: 12.3% [signal activator]	–
CC(=O)c1cccc(NS(=O)(=O)c2ccc3[nH]c4c(c3c2)CCCCCC4)c1	inconclusive: 0.701% [signal inhibitor]	–
N#CC1=C(N)SC(N)=C(C#N)C1CCC1CCCCC1	inconclusive: 0.109% [signal inhibitor]	–
Cn1c(=O)c2c(nc(C(=N)SCC(=O)O)n2C)n(C)c1=O	inactive: 1.27% [at 11.4 µM, scaled: untreated 0%, proteasome inhibitor 100%]	–
O=C1[C@@H]2C=CC=CC2=NC(=S)N1CCN1CCC(=C(c2ccc(F)cc2)c2ccc(F)cc2)CC1	inactive	–
CCN(CC)S(=O)(=O)c1ccc2c(c1)nc(SCc1nc3ccsc3c(=O)[nH]1)n2CC	inconclusive: 1.5% [signal inhibitor]	–
CCCCOc1ccc(CNC(=O)CN2CCSc3ccccc32)cc1	inconclusive: 0.138% [signal inhibitor]	–
COc1ccc(-n2nc(C(=O)N(C)c3cccc(C(F)(F)F)c3)c3c4ccccc4n(C)c3c2=O)cc1	inactive	–
O=C(NCc1ccco1)c1cc2ccccc2c(=O)o1	–	inconclusive: 25.1 µM [signal inhibitor, single point]
COc1cccc(CNC(=O)CCn2c(=O)c3cccn3c3ccc(F)cc32)c1OC	inactive	–
O=C(CSc1ncccc1-c1nc2ccccc2[nH]1)NC1CC1	–	inconclusive: 15.8 µM [signal inhibitor, partial curve]
CCn1c(SCC(=O)c2cc(C)n(-c3ccc(C(=O)OC)cc3)c2C)nnc1-c1cccnc1	inconclusive: 2.5% [signal inhibitor]	–
Cc1nc2nc(NC(=O)c3cccc(Cl)c3)[nH]n2c(=O)c1Cc1ccccc1	inconclusive: 0.842% [signal inhibitor]	–
CCCNC(=O)C1CCC(Cn2c(=O)c3sccc3n(Cc3cccc(OC)c3)c2=O)CC1 (configuration not stated)	inactive	–
CCC(C(=O)N1CCN(c2cccc(C)c2C)CC1)n1nc(C)c2sc3ccccc3c2c1=O (configuration not stated)	inconclusive: -1.04% [signal inhibitor]	–
COc1ccc(CCNC(=O)CCc2c(C)nc3c(c(C)nn3-c3ccc(C)c(C)c3)c2C)c(OC)c1OC	inconclusive: 1.66% [signal inhibitor]	–
Cc1ccc(NC(=O)CCn2c(=O)c3cccn3c3ccccc32)c(Cl)c1	inconclusive: 1.82% [signal inhibitor]	–

Compound	IkBa stabilization activation	Potency
Cc1ccc(NC(=O)c2nn(C)c3c2CS(=O)(=O)c2ccccc2-3)c(Cl)c1	inconclusive: 1.34% [signal inhibitor]	–
COc1cc(CN(C(=O)c2ccco2)c2ccc(C)cc2)ccc1O	inactive	–
CCCOc1c(OC)cccc1C1CC(=O)Nc2cc3c(cc21)OCO3 (configuration not stated)	inconclusive: 5.05% [signal inhibitor]	–
O=C(CCCCCn1c(=O)c2sccc2n(CC(=O)Nc2cccc(Cl)c2)c1=O)NCc1ccc2c(c1)OCO2	–	inconclusive: 25.1 µM [signal inhibitor, partial curve]
COc1ccc(-c2nc3c(c(SCC(=O)Nc4ccc(C(=O)O)cc4)n2)Cc2ccccc2O3)cc1	inconclusive: 3.4% [signal inhibitor]	–
CCOC(=O)Cc1ccc(NC(=O)Nc2cccc(OCc3cc(=O)n4cc(C)ccc4n3)c2)cc1	inconclusive: 0.162% [signal inhibitor]	–
O=C1c2[nH]nc(-c3ccccc3O)c2C(c2ccccc2)N1Cc1ccco1 (configuration not stated)	inconclusive: -3.33% [signal inhibitor]	–
CCOC(=O)c1c(C)n(C)c2ccc(OCC(O)CN3C(=O)c4ccccc4S3(=O)=O)cc12 (configuration not stated)	inactive	–
Cc1ccc(C(C(=O)NCc2ccco2)N(CCc2ccccc2)C(=O)Cn2nnc3ccccc32)o1 (configuration not stated)	inconclusive: 5.32% [signal inhibitor]	–
COC(=O)c1cccc(Oc2nc3c(c(=O)n(C)c(=O)n3C)n2C(C)C)c1	inactive	–
CCc1c(C)sc2c1CCN(C(=O)Nc1cc(OC)c(OC)c(OC)c1)C2c1ccccc1 (configuration not stated)	inconclusive: 1.99% [signal inhibitor]	–
COc1ccc(N(C(=O)/C=C\C(=O)Nc2ccc(Cl)cc2)C(C(=O)NCc2ccco2)c2ccc(C)cc2)cc1 (configuration not stated)	inconclusive: 0.216% [signal inhibitor]	–
COc1ccc(NC(=O)CCS(=O)(=O)c2nc(-c3cccs3)cc(C(F)(F)F)n2)cc1OC	–	inconclusive: 5.01 µM [signal inhibitor, single point]
O=C(c1noc2c1CCCCC2)N1CCN(c2ccc(Cl)cc2)CC1	inconclusive: -1.35% [signal inhibitor]	–
CCc1ccc(-c2cn3c(n2)sc2cc(C(=O)NCCc4ccc(OC)cc4OC)ccc23)cc1	inactive	–
COc1ccccc1NC(=O)Cn1c(=O)n(Cc2ccc3c(c2)OCO3)c(=O)c2oc3ccccc3c21	inconclusive: 4.27% [signal inhibitor]	–
Oc1ccc(N=Cc2ccc(-c3cccs3)s2)cc1	–	inconclusive: 20 µM [rising, partial curve]
CCCCCSc1nc2c(c(=O)[nH]c(=O)n2C)n1CCc1ccccc1	inactive	–
O=C(CNCCC1=CCCCC1)Nc1ccccc1N1CCCCC1	inconclusive: 1.21% [signal inhibitor]	–
Cc1ccc(NC(=O)CN(c2ccccc2)S(=O)(=O)N(C)C)cc1Cl	–	inconclusive: 25.1 µM [signal inhibitor]
Cc1cccc(C(=O)Nc2cccc(C(=O)OCc3cc(=O)n4ccsc4n3)c2)c1	inconclusive: 1.38% [signal inhibitor]	–
